Screen size: about 150,000 compounds; about 540 (0.36%) showed an effect of 50% or more. The list shows a part of the results.

The experiment has as its system Plasmodium falciparum. Kind of experiment: Primary screen in NF54 nanoGlo assay, in single point, at 2uM, 72h; a lower Z score goes with more inhibition. The settings on record: timepoint 72 hour. It counts as functional, Erythrocyte.
Usually % Inhibition stands for the drop in the measured response relative to a control, in per cent. As for `COCc1nc(CCCn2cncn2)n(-c2ccncc2)n1`, the “% Inhibition” value was -3% and the Z score is on record as 0.36.
`CCC(Oc1ccc2c(c1)C(c1cccc(F)c1)N(C(=O)C(C)C)CC2)C(=O)NCC1CCCO1` (centres undefined): the “% Inhibition” value is on record as -9% and the Z score is given as 1.38.
`CCOc1ncccc1CN[C@@H](C)c1ccc2ccccc2n1`: the “% Inhibition” value was -11% and the Z score came to 0.99.
As for `CCN(CC)c1nc(Nc2ccc(C)cc2)nc(N(CC)CC)n1`, the “% Inhibition” value is -6% and the Z score is 0.91.
In the case of `Cn1c(=O)n(C)c2cc(N3CCCC3)c(NC(=O)Nc3ccc(F)cc3)cc21`, the “% Inhibition” value is given as -13% and the Z score was found to be 1.9.
As to `O=C1CN(CC(=O)N2CCCCC[C@H]2c2noc(-c3ccccc3)n2)C(=O)N1`, the “% Inhibition” value was -2% and the Z score turned out to be 0.42.
Consider `CC(C)(C)CCNC(=O)[C@H]1CCCN(C2CCN(Cc3cccnc3)CC2)C1`, for which the “% Inhibition” value was -5% and the Z score amounted to 0.85.
In the case of `Cc1csc(C2(NC(=O)Nc3cnc(C)nc3C3CC3)CCC2)n1`, the “% Inhibition” value came to 9% and the Z score is recorded as -1.45.
In the case of `CN(CCc1ccccn1)C(=O)c1cc(NC(=O)c2ccccc2)cc2ncn(C3CCCC3)c12`, the “% Inhibition” value is given as -9% and the Z score was 1.14.
As to `COc1ccccc1CC(=O)N1Cc2cccnc2C1`, the “% Inhibition” value amounted to 10% and the Z score is reported as -1.18.
Regarding `C[C@H](O)CN(CC(F)F)C(=O)c1ccc(Cl)c2occc12`, the “% Inhibition” value worked out at 7% and the Z score was -0.91.
The corresponding values for `Cc1c[nH]c(CN2CCC3(CCC(=O)N(Cc4ccccc4)C3)CC2)n1` are -4% and 0.56.
Turning to `CC(C)(C)N1C(=O)c2ccc(-c3nc4ccccc4s3)cc2C1=O`, the “% Inhibition” value stood at 9% and the Z score is -1.12.
Take `COC(=O)[C@H](C)N(C(=O)c1scnc1C)C1CCC1`: the “% Inhibition” value was -9% and the Z score came out at 1.27.
With `C#CCCCC(=O)Nc1ccc(C)c(N2CC[C@H](N(C)C)C2)c1`, the “% Inhibition” value is on record as 10% and the Z score was -1.3.
As to `CC(C)(NC(=O)CCc1ccncc1)c1nnc(N)s1`, the “% Inhibition” value is recorded as -5% and the Z score was 0.91.
As for `CN(Cc1ccc(-n2cccn2)cc1)C(=O)C[C@H]1CCS(=O)(=O)C1`, the “% Inhibition” value is listed as -2% and the Z score stood at 0.2.
Consider `Cc1ccc(Br)c(C(=O)Nc2cncc3c2CCCC3)n1`, for which the “% Inhibition” value is 3% and the Z score is listed as -0.72.
As to `O=S(=O)(NC[C@H]1CCCNC1)c1cccc(F)c1F`, the “% Inhibition” value was -13% and the Z score came out at 1.86.
With `CC(C)CNC1OCc2ccccc2CO1`, the “% Inhibition” value is on record as -6% and the Z score worked out at 0.72.
Take `CS(=O)(=O)NCc1ccc(S(N)(=O)=O)cc1`: the “% Inhibition” value came out at 3% and the Z score was -0.39.
As for `COC[C@H](C)NC(=O)c1ccc(C)c(C)c1`, the “% Inhibition” value amounted to 6% and the Z score is listed as -0.82.
The corresponding values for `Cc1ccc(Cn2nc(C3CCNCC3)n(Cc3ccccc3)c2=O)cc1F` are -12% and 1.32.
On the same counts, the results for `O=C(O)C1CCN(C(=O)C2Cc3ccccc3O2)C2CCCC12` (centres undefined) are -13% and 1.6.
The corresponding values for `Cn1nncc1CN1CCC(S(=O)(=O)N2CCCC2)CC1` are -14% and 2.63.
Regarding `O=C1[C@H]2CCCCN2C(=O)N1Cc1ccc2cncn2c1`, the “% Inhibition” value is -7% and the Z score is listed as 0.93.
`N#C[C@@H]1CC[C@H](NC(=O)NC(Cc2ccccc2)c2ncco2)C1` (some centres undefined): the “% Inhibition” value is recorded as -4% and the Z score is given as 0.77.
As to `Clc1cccc(C2(c3nc([C@H]4CCOC4)no3)CC2)c1`, the “% Inhibition” value turned out to be 3% and the Z score is -0.32.
For the molecule `CCC[C@H]1C[C@@H](NC(C)=O)C[C@@H](C2CCCCC2)O1`, the “% Inhibition” value is listed as -6% and the Z score is reported as 0.6.
With `Cn1ccc(-c2cc(C(=O)NC[C@H]3Cc4ccccc4CN3)no2)n1`, the “% Inhibition” value came to 2% and the Z score was -0.27.
The corresponding values for `Cn1c(=O)[nH]c(=O)c2c1nc(NC1CCCCC1)n2C[C@H](O)COc1ccccc1` are -11% and 1.87.
Consider `O=C(c1c[nH]c2ccccc12)N1CCC[C@H](Oc2cccnn2)C1`, for which the “% Inhibition” value worked out at 1% and the Z score is -0.11.
Consider `CNC(=O)c1cccc(N[C@@H]2COCC[C@@H]2OCc2c(C)noc2C)n1`, for which the “% Inhibition” value is -5% and the Z score was 1.02.
In the case of `CCOC(=O)CO/N=C(/c1nonc1N)N1CCOCC1`, the “% Inhibition” value is 4% and the Z score is reported as -0.64.
For `CCCn1ncc(C)c1NC(=O)CN1CCCCC1=O`, the “% Inhibition” value is -12% and the Z score turned out to be 2.29.
As for `Cn1ccc2cc(C[C@@H]3CC[C@H](CN4CCC(C(=O)O)CC4)O3)ccc21`, the “% Inhibition” value is listed as -9% and the Z score was found to be 1.61.
Take `Cn1cccc1-c1nnc(C2(c3ccc(Br)cc3)CCOCC2)o1`: the “% Inhibition” value is reported as -1% and the Z score is listed as 0.21.
On to `Cc1ccc(CN)c(OCCCC(C)C)c1`, for which the “% Inhibition” value is recorded as 1% and the Z score is given as -0.18.
In the case of `COc1cnccc1C(C)NCC(O)C(F)(F)F` (centres undefined), the “% Inhibition” value was -5% and the Z score worked out at 0.54.
As to `Cc1cc(CS(=O)(=O)CC(=O)N(C)Cc2ccccc2)on1`, the “% Inhibition” value is listed as 9% and the Z score is reported as -1.41.
As for `Cc1ccc(COC2CN(S(=O)(=O)c3cccc4nsnc34)C2)cc1`, the “% Inhibition” value amounted to 0% and the Z score is listed as 0.03.
Take `CC(C)C(=O)N1CCCN([C@H]2CCc3ccccc3NC2=O)CC1`: the “% Inhibition” value was -7% and the Z score was found to be 0.79.
